For assay [1], the target named is T1, MST2 (recombinant, wildtype) (human) (UniProt Q13188).
T1 sequence: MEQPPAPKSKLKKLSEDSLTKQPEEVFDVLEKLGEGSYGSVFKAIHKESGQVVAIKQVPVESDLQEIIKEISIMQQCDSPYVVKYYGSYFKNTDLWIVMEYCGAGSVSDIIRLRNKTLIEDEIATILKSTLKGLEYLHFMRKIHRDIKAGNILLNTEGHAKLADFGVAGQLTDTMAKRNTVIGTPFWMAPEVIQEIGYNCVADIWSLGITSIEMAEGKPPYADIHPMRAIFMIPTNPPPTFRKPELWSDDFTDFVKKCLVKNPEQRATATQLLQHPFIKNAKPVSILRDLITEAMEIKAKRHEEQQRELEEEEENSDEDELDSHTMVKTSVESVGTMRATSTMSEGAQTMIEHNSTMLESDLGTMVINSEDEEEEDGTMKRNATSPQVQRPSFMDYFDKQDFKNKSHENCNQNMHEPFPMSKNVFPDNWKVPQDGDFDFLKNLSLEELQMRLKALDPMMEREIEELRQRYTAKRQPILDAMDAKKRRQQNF
The assay is described as follows: pull-down; GST pulldown: GST-tagged protein, partner and glutathione Sepharose mixed at 4 °C for 1 h in 20 mM HEPES (pH 7.5), 100 mM NaCl; eluted with 20 mM reduced glutathione; SDS-PAGE, Coomassie staining; both purified.

By UniProt entry, the sequences of proteins in these tests, tags left out.
UniProt Q9P289: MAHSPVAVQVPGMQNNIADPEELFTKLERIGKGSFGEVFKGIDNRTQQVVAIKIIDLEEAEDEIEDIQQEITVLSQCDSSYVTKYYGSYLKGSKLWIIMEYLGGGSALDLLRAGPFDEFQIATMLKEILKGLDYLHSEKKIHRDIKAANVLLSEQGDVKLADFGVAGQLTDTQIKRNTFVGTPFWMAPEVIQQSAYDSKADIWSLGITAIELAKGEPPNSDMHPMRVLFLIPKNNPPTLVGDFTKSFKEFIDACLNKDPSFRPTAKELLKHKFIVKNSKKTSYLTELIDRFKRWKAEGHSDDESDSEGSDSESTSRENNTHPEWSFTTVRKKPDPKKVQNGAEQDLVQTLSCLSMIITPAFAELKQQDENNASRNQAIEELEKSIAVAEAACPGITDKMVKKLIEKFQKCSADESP
UniProt O95747: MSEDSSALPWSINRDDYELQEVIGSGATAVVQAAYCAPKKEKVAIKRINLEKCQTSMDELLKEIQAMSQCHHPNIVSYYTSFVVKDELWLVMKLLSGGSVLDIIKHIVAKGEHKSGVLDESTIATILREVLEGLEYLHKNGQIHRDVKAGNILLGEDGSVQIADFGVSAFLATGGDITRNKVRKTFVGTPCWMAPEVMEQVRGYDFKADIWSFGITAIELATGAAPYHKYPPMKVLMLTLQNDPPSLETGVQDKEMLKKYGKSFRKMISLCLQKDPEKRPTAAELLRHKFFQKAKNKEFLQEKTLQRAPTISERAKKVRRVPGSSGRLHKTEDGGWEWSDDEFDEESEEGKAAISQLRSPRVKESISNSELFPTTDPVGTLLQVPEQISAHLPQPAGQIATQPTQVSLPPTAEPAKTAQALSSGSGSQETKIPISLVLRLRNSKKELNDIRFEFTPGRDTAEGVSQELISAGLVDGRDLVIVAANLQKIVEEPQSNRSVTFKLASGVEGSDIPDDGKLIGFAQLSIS
UniProt Q5VSL9: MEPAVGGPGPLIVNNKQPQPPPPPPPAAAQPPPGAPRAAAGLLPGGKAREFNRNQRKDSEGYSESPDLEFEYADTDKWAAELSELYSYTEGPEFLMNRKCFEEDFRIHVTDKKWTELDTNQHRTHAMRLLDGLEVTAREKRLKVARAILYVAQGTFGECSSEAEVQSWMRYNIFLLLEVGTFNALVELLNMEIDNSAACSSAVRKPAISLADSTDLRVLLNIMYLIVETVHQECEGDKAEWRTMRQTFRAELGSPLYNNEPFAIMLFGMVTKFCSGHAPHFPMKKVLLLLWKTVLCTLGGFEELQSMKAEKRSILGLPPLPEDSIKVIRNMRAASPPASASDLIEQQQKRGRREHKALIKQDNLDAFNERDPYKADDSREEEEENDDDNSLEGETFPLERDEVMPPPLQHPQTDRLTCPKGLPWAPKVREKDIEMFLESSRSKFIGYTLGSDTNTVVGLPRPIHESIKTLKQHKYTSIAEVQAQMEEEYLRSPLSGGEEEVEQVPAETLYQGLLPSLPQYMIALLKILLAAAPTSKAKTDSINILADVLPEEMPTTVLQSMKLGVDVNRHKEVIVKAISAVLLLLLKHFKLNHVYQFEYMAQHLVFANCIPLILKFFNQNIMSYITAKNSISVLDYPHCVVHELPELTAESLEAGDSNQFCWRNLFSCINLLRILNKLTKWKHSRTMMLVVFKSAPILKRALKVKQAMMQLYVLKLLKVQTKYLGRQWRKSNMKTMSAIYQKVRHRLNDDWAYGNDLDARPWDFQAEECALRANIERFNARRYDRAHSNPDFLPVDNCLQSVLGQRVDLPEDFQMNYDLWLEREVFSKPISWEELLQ

In assay [2] the target is T1, MST2 (recombinant, wildtype) (human). The assay is described as follows: pull-down; pulldown with the kinase (MST2 or MST4) first dephosphorylated with lambda-phosphatase (λPPase); both purified.
The target in assay [3] is MST4 (recombinant) (human) (UniProt Q9P289). The description is as above.
In assay [4] the target is OSR1 (recombinant) (human) (UniProt O95747). The assay can be described thus: pull-down; pulldown with purified recombinant proteins shown in supplementary figures; whether GST or MBP and who carried the tag not told; both purified.
For assay [5], the target named is T2, MST2 K56R (recombinant) (human) (UniProt Q13188).
T2 sequence: T1 sequence with K56R
Described as above.

For assay [6], the target named is STRIP1 (full-length, His-tagged, insect cells) (UniProt Q5VSL9). The description is as above.
Assay [7] has as its target T3, SIKE1 (recombinant, limits not stated) (human) (UniProt Q9BRV8).
T3 sequence: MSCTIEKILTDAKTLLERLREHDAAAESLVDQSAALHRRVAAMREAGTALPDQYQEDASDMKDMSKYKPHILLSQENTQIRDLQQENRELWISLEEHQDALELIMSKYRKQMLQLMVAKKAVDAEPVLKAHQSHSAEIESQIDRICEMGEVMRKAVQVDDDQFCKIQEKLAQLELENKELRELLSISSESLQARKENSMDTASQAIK
The description is as above.

In assay [8] the target is T4, MBP-tagged STRN3 fragment (residues 64–341) (human) (UniProt Q13033).
T4 sequence: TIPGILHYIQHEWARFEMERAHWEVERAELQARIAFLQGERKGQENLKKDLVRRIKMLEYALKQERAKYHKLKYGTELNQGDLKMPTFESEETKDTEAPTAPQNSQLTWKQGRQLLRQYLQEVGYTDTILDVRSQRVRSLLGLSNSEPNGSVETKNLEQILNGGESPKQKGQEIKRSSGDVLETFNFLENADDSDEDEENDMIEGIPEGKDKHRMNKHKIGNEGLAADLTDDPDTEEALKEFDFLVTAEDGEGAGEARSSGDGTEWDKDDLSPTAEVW
The assay can be described thus: pull-down; MBP pulldown: MBP-tagged protein, partner and amylose resin mixed at 4 °C for 1 h in 20 mM HEPES (pH 7.5), 100 mM NaCl; eluted with 20 mM maltose; SDS-PAGE, Coomassie staining; both purified.

Assay [9] deals with T5, STRN3 (residues 64–190) (human) (UniProt Q13033).
T5 sequence: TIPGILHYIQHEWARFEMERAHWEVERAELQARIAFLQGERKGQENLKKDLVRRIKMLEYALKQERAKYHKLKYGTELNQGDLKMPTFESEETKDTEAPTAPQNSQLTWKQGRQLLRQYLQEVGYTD
The description is as above.

The target in assay [10] is T6, STRN3 peptide (residues 166–190) (human) (UniProt Q13033).
T6 sequence (peptide): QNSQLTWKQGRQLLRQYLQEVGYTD
The assay can be described thus: pull-down; pulldown with purified recombinant proteins shown in supplementary figures; whether GST or MBP and who carried the tag not told; both purified.

Assay [11] deals with T7, STRN3 (endogenous) (human (endogenous in HEK293FT)) (UniProt Q13033).
T7 sequence: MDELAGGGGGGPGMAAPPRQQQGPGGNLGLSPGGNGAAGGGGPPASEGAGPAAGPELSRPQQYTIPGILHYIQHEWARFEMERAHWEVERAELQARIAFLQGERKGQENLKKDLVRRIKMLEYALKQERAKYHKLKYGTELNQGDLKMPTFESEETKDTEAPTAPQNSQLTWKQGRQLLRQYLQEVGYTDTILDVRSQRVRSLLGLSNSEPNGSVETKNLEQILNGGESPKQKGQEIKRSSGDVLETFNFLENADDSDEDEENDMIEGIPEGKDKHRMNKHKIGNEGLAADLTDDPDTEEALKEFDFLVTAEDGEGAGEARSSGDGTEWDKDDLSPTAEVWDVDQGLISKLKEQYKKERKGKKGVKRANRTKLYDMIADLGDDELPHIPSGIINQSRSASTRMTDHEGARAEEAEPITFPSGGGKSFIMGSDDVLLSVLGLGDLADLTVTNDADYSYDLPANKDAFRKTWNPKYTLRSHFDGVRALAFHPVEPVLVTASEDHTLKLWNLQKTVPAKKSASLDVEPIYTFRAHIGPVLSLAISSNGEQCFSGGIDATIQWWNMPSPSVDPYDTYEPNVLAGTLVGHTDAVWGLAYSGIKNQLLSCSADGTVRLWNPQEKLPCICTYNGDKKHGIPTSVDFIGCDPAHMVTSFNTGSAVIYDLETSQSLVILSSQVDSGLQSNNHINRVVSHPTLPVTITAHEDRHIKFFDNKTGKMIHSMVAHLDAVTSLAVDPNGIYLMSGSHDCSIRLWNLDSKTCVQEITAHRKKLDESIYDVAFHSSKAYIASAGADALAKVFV
The assay is described as follows: co-IP; endogenous proteins, HEK293FT cells at high (80%) and low (10%) cell density; immunoprecipitation of STRN3 or MST1; immunoblot. Background: A western blot detects proteins with antibodies after separation by electrophoresis.

Assay [12] concerns the target T8, MST1 (endogenous) (human (endogenous in HEK293FT)) (UniProt Q13043).
T8 sequence: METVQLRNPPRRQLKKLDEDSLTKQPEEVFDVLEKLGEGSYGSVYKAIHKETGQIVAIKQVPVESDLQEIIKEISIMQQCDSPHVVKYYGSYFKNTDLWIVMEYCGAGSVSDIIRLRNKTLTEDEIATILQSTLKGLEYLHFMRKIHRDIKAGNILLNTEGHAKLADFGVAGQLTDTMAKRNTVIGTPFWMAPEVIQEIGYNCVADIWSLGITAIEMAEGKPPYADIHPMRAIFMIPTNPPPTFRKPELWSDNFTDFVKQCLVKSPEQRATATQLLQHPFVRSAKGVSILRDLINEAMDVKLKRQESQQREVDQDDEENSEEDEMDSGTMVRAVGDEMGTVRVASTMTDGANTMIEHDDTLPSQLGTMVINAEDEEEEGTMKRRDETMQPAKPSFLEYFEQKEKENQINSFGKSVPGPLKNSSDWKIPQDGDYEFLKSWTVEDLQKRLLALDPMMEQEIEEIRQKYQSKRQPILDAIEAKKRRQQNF
Described as above.

Changes are numbered by the printed parent chain. No constants are given. Whether binding was seen depends on the method and setting. For part of these data: Binding seen in cells or lysates may run through a third protein. Some binding calls cover weakened binding; strength is not graded here. For part of these data: Sequences can lack the tags named with a protein.

B1: STRN3 (residues 146–220) (domain or fragment, UniProt Q13033 146-220)
chain: LKMPTFESEETKDTEAPTAPQNSQLTWKQGRQLLRQYLQEVGYTDTILDVRSQRVRSLLGLSNSEPNGSVETKNL
In the case of B1, the binding entry in [1] is reported as “no binding”.

B2: STRN3 (residues 221–341) (domain or fragment, UniProt Q13033 221-341)
chain: EQILNGGESPKQKGQEIKRSSGDVLETFNFLENADDSDEDEENDMIEGIPEGKDKHRMNKHKIGNEGLAADLTDDPDTEEALKEFDFLVTAEDGEGAGEARSSGDGTEWDKDDLSPTAEVW
For the molecule B2, in assay [1], the binding result is given as “no binding”.

B3: FHA domain (residues 5–135) of SLMAP (domain or fragment, UniProt Q14BN4 5-135)
chain: LAIFTCRPNSHPFQERHVYLDEPIKIGRSVARCRPAQNNATFDCKVLSRNHALVWFDHKTGKFYLQDTKSSNGTFINSQRLSRGSEESPPCEILSGDIIQFGVDVTENTRKVTHGCIVSTIKLFLPDGMEA
Regarding B3, the binding result is “no binding (condition: MST2 treated with λPPase)” in assay [2], “no binding (condition: MST4 treated with λPPase)” in assay [3], “no binding” in assay [4] and “no binding” in [5].

B4: TRAF3IP3 coiled-coil region (residues 188–513) (domain or fragment, UniProt Q9Y228 188-513)
chain: AVLDKEIIQLSDYLKEALQRELVLKQKMVILQDLLSTLIQASDSSWKGQLNEDKLKGKLRSLENQLYTCTQKYSPWGMKKVLLEMEDQKNSYEQKAKESLQKVLEEKMNAEQQLQSTQRSLALAEQKCEEWRSQYEALKEDWRTLGTQHRELESQLHVLQSKLQGADSRDLQMNQALRFLENEHQQLQAKIECLQGDRDLCSLDTQDLQDQLKRSEAEKLTLVTRVQQLQGLLQNQSLQLQEQEKLLTKKDQALPVWSPKSFPNEVEPEGTGKEKDWDLRDQLQKKTLQLQAKEKECRELHSELDNLSDEYLSCLRKLQHCREELN
B4: the figures for the binding entry in [6] and in [7] were “no binding” and “binds”, respectively.

B5: SLMAP coiled-coil regions (CC1-2, residues 161–565) (domain or fragment, UniProt Q14BN4 161-565)
chain: YSQELFQLSQYLQEALHREQMLEQKLATLQRLLAITQEASDTSWQALIDEDRLLSRLEVMGNQLQACSKNQTEDSLRKELIALQEDKHNYETTAKESLRRVLQEKIEVVRKLSEVERSLSNTEDECTHLKEMNERTQEELRELANKYNGAVNEIKDLSDKLKVAEGKQEEIQQKGQAEKKELQHKIDEMEEKEQELQAKIEALQADNDFTNERLTALQVRLEHLQEKTLKECSSLEHLLSKSGGDCTFIHQFIECQKKLIVEGHLTKAVEETKLSKENQTRAKESDFSDTLSPSKEKSSDDTTDAQMDEQDLNEPLAKVSLLKDDLQGAQSEIEAKQEIQHLRKELIEAQELARTSKQKCFELQALLEEERKAYRNQVEESTKQIQVLQAQLQRLHIDTENLREE
As for B5, the binding entry in assay [6] is on record as “no binding”; in assay [7], “binds”.

B6: SIKE1 (recombinant, limits not stated) (protein, UniProt Q9BRV8 1-207)
chain: T3 sequence
On to B6, for which the binding entry in assay [8], in assay [9] and in [10] was “binds” in each case.

B7: SIKE1 (endogenous) (protein, UniProt Q9BRV8 1-207)
chain: T3 sequence
In the case of B7, the binding entry in assay [11] and in [12] was “binds” in each case.

Values taken from publication PMC6323126.
